Measured values as given in PubChem BioAssay AID485294 (National Center for Advancing Translational Sciences (NCATS), 2010).
Screen size: about 370,000 compounds; about 150 (0.041%) were called active. Inconclusive means that the source gave no clear call. Such entries were picked first, then a sample of the others. Calls follow the shape of the dose curve; as a rule, active = well fitted inhibition curve with a large enough effect; inconclusive = small, poorly fitted or top-dose-only effect; inactive = flat fitted curve, though single readings scatter. No potency is given beside an inconclusive call; the fits are too rough.

Each compound was assayed against Beta-lactamase (Escherichia coli (strain K12)) (UniProt P00811) (assay: qHTS Inhibitors of AmpC Beta-Lactamase (assay with detergent)). Settings: AmpC hydrolysis of nitrocefin, absorbance 480 nm, 0.01% Triton; activity change, negative = inhibition: at 114 µM (top of the series).
Method in brief: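 AmpC (5.3 nM in the dispensed reagent) in 20 mM phosphate pH 7.0 with 0.01% (detergent screen) or 0.0001% Triton X-100 was preincubated with compounds for 15 min at room temperature. Nitrocefin was then added from an 800 uM solution, and hydrolysis was followed at 480 nm.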
Also: nearly all actives have a fitted effect of over 25% in size.
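For activity change, negative = inhibition in this document: 0% = no-compound wells and -100% = no-enzyme wells.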
Potency is read from the fitted curve at half-maximal effect; tags tell the direction and shape of the fitted curve.

Sequence of UniProt P00811 (P00811 whole entry, looked up): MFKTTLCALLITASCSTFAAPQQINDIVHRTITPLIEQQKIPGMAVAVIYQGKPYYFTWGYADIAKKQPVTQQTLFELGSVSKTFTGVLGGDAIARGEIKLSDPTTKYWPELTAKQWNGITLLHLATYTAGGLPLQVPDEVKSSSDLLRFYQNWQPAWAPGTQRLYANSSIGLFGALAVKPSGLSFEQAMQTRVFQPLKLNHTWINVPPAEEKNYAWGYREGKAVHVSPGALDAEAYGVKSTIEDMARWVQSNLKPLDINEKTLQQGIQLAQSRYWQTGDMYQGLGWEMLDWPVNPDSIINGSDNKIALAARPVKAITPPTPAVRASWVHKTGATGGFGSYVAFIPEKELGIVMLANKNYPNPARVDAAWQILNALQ

SMILES | Potency | activity change, negative = inhibition
CC1Cc2ccccc2N1C(=O)CSc1nnc(Cc2ccccc2)n1CCc1ccccc1 (configuration not stated) | inconclusive [inhibitor, single point] | –
CCOC(=O)c1sc(NC(=O)c2ccccc2OC)nc1C | inconclusive [inhibitor, full curve, poor fit] | –
COc1ccc(NC(=O)/C(Cl)=C(/Cl)S(=O)Cc2ccccc2Cl)cn1 (configuration not stated) | – | inactive: 0.0619%
CCOc1ccc(OCCNC(=O)c2cc(C3CC3)nc3c2cnn3C(C)C)cc1 | inconclusive [inhibitor, partial curve, poor fit] | –
CSc1ccc(/C=N/n2c(Cc3ccc(Br)cc3)n[nH]c2=S)cc1 | inconclusive [inhibitor, full curve, poor fit] | –
O=C(O)CN1C(=O)SC(Nc2ccc(C(=O)O)cc2)C1=O (configuration not stated) | inconclusive [inhibitor, full curve, poor fit] | –
CC(C)c1ccc(NC(=O)CN2C(=O)CN=C(c3ccccc3)c3ccccc32)cc1 | inconclusive [inhibitor, single point] | –
COc1ccc(S(=O)(=O)Cc2ccc(C(=O)NC(C)C)o2)cc1 | inconclusive [inhibitor, full curve] | –
Cc1occc1-c1nnc(SCC(=O)Nc2ccccn2)o1 | – | inactive: 6.19%
C=CCNC(=S)Nc1cc(S(=O)(=O)N2CCOCC2)ccc1-n1cncn1 | inconclusive [inhibitor, full curve] | –
c1ccc(-c2cc3c(N4CCCC4)ncnc3s2)cc1 | inconclusive [inhibitor, full curve, poor fit] | –
O=C1C(C=NCc2ccco2)=C(O)c2ccccc21 | inconclusive [inhibitor, full curve, poor fit] | –
Cc1ccccc1Nc1cc(C(=O)NCC2CCCO2)c2ccccc2n1 (configuration not stated) | inconclusive [inhibitor, partial curve] | –
O=C(Nc1ccc(F)cc1F)c1cc2ccc3cccnc3c2[nH]1 | – | inactive: 23.4%
COCCCNC(=O)CN(Cc1ccccc1)S(=O)(=O)c1ccccc1 | inconclusive [inhibitor, full curve, poor fit] | –
COc1cc(OC)cc(C(=O)NCCCCCCNC(=O)c2cc(OC)cc(OC)c2)c1 | inconclusive [inhibitor, full curve, poor fit] | –
Cc1ccc(C(=O)OCC(=O)c2ccc(Cl)s2)s1 | inconclusive [inhibitor, single point] | –
O=C(Nc1cccc2ccccc12)C1CCCC1 | inconclusive [inhibitor, partial curve, poor fit] | –
Cc1cccc(C)c1NC(=O)N1CCC(C(N)=O)(N2CCCCC2)CC1 | – | inactive: 23.4%
Cc1cc2c(c(=O)n1Cc1cccnc1)C(c1ccc(F)cc1)C(C#N)=C(N)O2 (configuration not stated) | inconclusive [inhibitor, partial curve, poor fit] | –
COC(=O)c1cc(OC)c(OC)cc1NC(=O)CN1CCCCC1 | – | inactive: -4.27%

SMILES | Potency | activity change, negative = inhibition
Cc1cc(C(=O)N2CCN(c3ccccn3)CC2)no1 | inconclusive [inhibitor, full curve, poor fit] | –
Cc1cnc(C(=O)Nc2nccs2)cn1 | – | inactive: -8.73%
COc1cccc(CNC(=O)CCc2nc3cc(S(=O)(=O)N4CCOCC4)ccc3n2C)c1 | inconclusive [inhibitor, partial curve, poor fit] | –
Cc1cc(C(=O)N/N=C/c2cccc([N+](=O)[O-])c2O)n[nH]1 | inconclusive [inhibitor, full curve, poor fit] | –
CCCCNC(=S)N1CCN(C(c2ccccc2)c2ccccc2)CC1 | inconclusive [inhibitor, full curve] | –
CC(NS(=O)(=O)c1ccc2c(c1)CC(=O)N2C)c1ccccc1 (configuration not stated) | – | inactive: 2.85%
COc1ccccc1NC(=O)CCN1C(=O)C2CC=CCC2C1=O (configuration not stated) | inconclusive [inhibitor, full curve] | –
CCOc1ccccc1N1CN(CC)CNC1=S | inconclusive [inhibitor, partial curve] | –
COC(=O)c1cc(OC)c(OC)c(OC)c1NC(=O)c1cc(=O)n(C)c(=O)n1C | – | inactive: -0.0586%
Cc1cc(C)c2nc(NC(=O)c3cccc(S(=O)(=O)N4CCc5ccccc54)c3)sc2c1 | inconclusive [inhibitor, partial curve, poor fit] | –
COc1ccc(CCNC(=O)C2CC(c3ccccc3[N+](=O)[O-])=NO2)cc1 (configuration not stated) | inconclusive [inhibitor, partial curve] | –
O=c1[nH]c(C2CCCCC2)nc2ccccc12 | inconclusive [inhibitor, full curve, poor fit] | –
O=C(CN1C(=O)COc2ccc(Cl)cc21)Nc1ccccn1 | inconclusive [inhibitor, full curve, poor fit] | –
CCN(CC)S(=O)(=O)c1ccc(N2CC(C(=O)NC3(C)CCS(=O)(=O)C3)CC2=O)cc1 (configuration not stated) | inconclusive [inhibitor, full curve, poor fit] | –
Cc1noc(NS(=O)(=O)c2ccc(NC(=O)CSc3nc4c(cc3C#N)CCC4)cc2)c1C | inconclusive [inhibitor, full curve, poor fit] | –
COc1cc(C(=O)OCC2CC(c3ccccc3)=NO2)cc(OC)c1OC (configuration not stated) | inconclusive [inhibitor, full curve] | –
O=C(Nc1ccc2c(c1)OCO2)c1ccc(=O)[nH]n1 | inconclusive [inhibitor, single point] | –
CCCOc1ccc(S(=O)(=O)N2CCOCC2)cc1[N+](=O)[O-] | inconclusive [inhibitor, single point] | –
CCOC(=O)CSc1nc(N)c(C#N)c(-c2ccc(OC)cc2)c1C#N | inconclusive [inhibitor, full curve] | –
CC(NC(=O)COC(=O)c1cccs1)c1ccccc1 (configuration not stated) | – | inactive: 1.17%
COc1ccc2[nH]c3c(=O)n(/N=C/c4ccc(OC)c(CN5CCCC5)c4)c(C)nc3c2c1 | – | inactive: -0.179%
